# Reference: ChEMBL document CHEMBL5606460, “ASAP - DENV-2 NS2B-NS3 protease fluorescence single point” (2024)
# The campaign covered roughly 2,000 compounds. About 110 (5.5%) showed an effect of 50% or more. This is one part of the list.
# Target: Genome polyprotein (dengue virus type 2) (UniProt P29990)
# [1] = Thailand/16681/1984, Concentration 25.0 uM, Number of replicates 1.0
structure (smiles),measurement,setting,value
Cn1cc(NC(=O)c2ccccc2C(F)(F)F)c(-c2c[nH]c3ncccc23)n1,inhibition,"Thailand/16681/1984, Concentration 49.5 uM, Number of replicates 2.0, Standard deviation 2.0973225812936915 %",-1.12%
same,inhibition,"Thailand/16681/1984, Concentration 99.01 uM, Number of replicates 2.0, Standard deviation 0.5651732227286548 %",-1.36%
same,inhibition,"Thailand/16681/1984, Concentration 198.0 uM, Number of replicates 2.0, Standard deviation 1.6135892292538794 %",-0.338%
COC[C@@H](C)CNC(=O)c1cc(Cl)ccc1NS(=O)(=O)c1ccc(Oc2ccccc2Cl)cc1,inhibition,"Thailand/16681/1984, Concentration 49.5 uM, Number of replicates 2.0, Standard deviation 0.2816677257730929 %",82.2%
same,inhibition,"Thailand/16681/1984, Concentration 99.01 uM, Number of replicates 2.0, Standard deviation 0.03025941418209339 %",83.8%
same,inhibition,"Thailand/16681/1984, Concentration 198.0 uM, Number of replicates 2.0, Standard deviation 0.3452939569842909 %",76.9%
COc1cc(COc2cccnc2F)nc(N2CCNCC2)n1,inhibition,"Thailand/16681/1984, Concentration 49.5 uM, Number of replicates 2.0, Standard deviation 0.982901153958829 %",-1.13%
same,inhibition,"Thailand/16681/1984, Concentration 99.01 uM, Number of replicates 2.0, Standard deviation 1.0780206061954283 %",-0.42%
same,inhibition,"Thailand/16681/1984, Concentration 198.0 uM, Number of replicates 2.0, Standard deviation 1.1287509765069297 %",-1.56%
CNC(=O)c1ccc(NS(=O)(=O)c2ccc(OC)cc2)cc1,inhibition,"Thailand/16681/1984, Concentration 49.5 uM, Number of replicates 2.0, Standard deviation 2.0586402248038174 %",1.38%
same,inhibition,"Thailand/16681/1984, Concentration 99.01 uM, Number of replicates 2.0, Standard deviation 1.3136382901588135 %",0.82%
same,inhibition,"Thailand/16681/1984, Concentration 198.0 uM, Number of replicates 2.0, Standard deviation 0.9863992791649605 %",2.03%
O=C1NCC[C@@H]1CNS(=O)(=O)c1ccc(Oc2ccccc2Cl)cc1,inhibition,"Thailand/16681/1984, Concentration 49.5 uM, Number of replicates 2.0, Standard deviation 4.002985951466216 %",-0.264%
same,inhibition,"Thailand/16681/1984, Concentration 99.01 uM, Number of replicates 2.0, Standard deviation 4.526482853100752 %",0.42%
same,inhibition,"Thailand/16681/1984, Concentration 198.0 uM, Number of replicates 2.0, Standard deviation 4.411103663666057 %",2.4%
COc1cccc(C(=O)N2CCN(C(=O)C3CCN(c4ccc(C=O)cc4)CC3)CC2)c1,inhibition,[1],10.9%
CSc1cccc(CN(C)C(=O)C2CCN(c3ccc(C=O)cc3)CC2)c1,inhibition,[1],12.8%
O=Cc1ccc(N2CCC(C(=O)Nc3cccc(I)c3)CC2)cc1,inhibition,[1],12%
Cc1cc(CO)c2cccc(Nc3n[nH]c4ccc(C#N)cc34)c2n1,inhibition,"Thailand/16681/1984, Concentration 49.95 uM, Number of replicates 2.0, Standard deviation 0.3272035180790509 %",7.32%
same,inhibition,"Thailand/16681/1984, Concentration 99.9 uM, Number of replicates 2.0, Standard deviation 0.2891408677762565 %",15.2%
O=Cc1ccc(N2CCC(C(=O)N3CCC(N4CCc5ccccc5C4)CC3)CC2)cc1,inhibition,[1],13.5%
NCc1cccc(NC(=O)[C@@H](CO)NC(=O)OCc2ccccc2)c1,inhibition,"Thailand/16681/1984, Concentration 49.5 uM, Number of replicates 2.0, Standard deviation 0.4735169770341957 %",-3.34%
same,inhibition,"Thailand/16681/1984, Concentration 99.01 uM, Number of replicates 2.0, Standard deviation 2.1222171442022573 %",-3.24%
same,inhibition,"Thailand/16681/1984, Concentration 198.0 uM, Number of replicates 2.0, Standard deviation 1.1527028197814282 %",-3.94%
Cc1c(C(=O)NCc2ccccn2)cc(C2CC2)n1C,inhibition,"Thailand/16681/1984, Concentration 49.5 uM, Number of replicates 2.0, Standard deviation 0.7699057540551737 %",-4.4%
same,inhibition,"Thailand/16681/1984, Concentration 99.01 uM, Number of replicates 2.0, Standard deviation 1.5944737789928543 %",-3.84%
same,inhibition,"Thailand/16681/1984, Concentration 198.0 uM, Number of replicates 2.0, Standard deviation 0.26712082530325487 %",-3.68%
CN(c1ccc(Cl)cc1C(N)=O)S(=O)(=O)c1ccc(Oc2ccccc2Cl)cc1,inhibition,"Thailand/16681/1984, Concentration 49.5 uM, Number of replicates 2.0, Standard deviation 0.11551161483271621 %",1.15%
same,inhibition,"Thailand/16681/1984, Concentration 99.01 uM, Number of replicates 2.0, Standard deviation 0.4161514072882 %",3.78%
same,inhibition,"Thailand/16681/1984, Concentration 198.0 uM, Number of replicates 2.0, Standard deviation 1.5666270190069185 %",5.59%
Cc1cc(Br)ccc1CNC(=O)C1CCN(c2ccc(C=O)cc2)CC1,inhibition,[1],4.75%
O=Cc1ccc(N2CCC(C(=O)NCc3cccc(OC4CCCC4)c3)CC2)cc1,inhibition,[1],5.45%
O=C(N[C@H]1CCn2c(n[nH]c2=O)C1)c1n[nH]cc1[C@H]1CCCNC1,inhibition,"Thailand/16681/1984, Concentration 49.5 uM, Number of replicates 2.0, Standard deviation 0.8990746863629206 %",-0.826%
same,inhibition,"Thailand/16681/1984, Concentration 99.01 uM, Number of replicates 2.0, Standard deviation 0.2162331418796865 %",-2%
same,inhibition,"Thailand/16681/1984, Concentration 198.0 uM, Number of replicates 2.0, Standard deviation 1.1386111474223564 %",-1.46%
O=C(Nc1cccc(N2CCNCC2)c1)c1cccc2ncccc12,inhibition,"Thailand/16681/1984, Concentration 49.5 uM, Number of replicates 2.0, Standard deviation 0.7096247814305581 %",-0.9%
same,inhibition,"Thailand/16681/1984, Concentration 99.01 uM, Number of replicates 2.0, Standard deviation 1.3131180031190148 %",-0.574%
same,inhibition,"Thailand/16681/1984, Concentration 198.0 uM, Number of replicates 2.0, Standard deviation 2.0180605857813765 %",1.07%
Cc1cc(CO)c2cccc(NCC3CCOCC3)c2n1,inhibition,"Thailand/16681/1984, Concentration 49.95 uM, Number of replicates 2.0, Standard deviation 0.7338707043405414 %",7.05%
same,inhibition,"Thailand/16681/1984, Concentration 99.9 uM, Number of replicates 2.0, Standard deviation 3.3835516958528777 %",15.6%
Cc1cc(CO)c2cccc(N3CCC(C(=O)O)CC3)c2n1,inhibition,"Thailand/16681/1984, Concentration 49.95 uM, Number of replicates 2.0, Standard deviation 1.005973455725178 %",0.555%
same,inhibition,"Thailand/16681/1984, Concentration 99.9 uM, Number of replicates 2.0, Standard deviation 3.4807086110401904 %",12.1%
Cc1nn(CC(=O)Nc2nc(C)c(C)s2)cc1C1CCNCC1,inhibition,"Thailand/16681/1984, Concentration 49.5 uM, Number of replicates 2.0, Standard deviation 0.2878961870460328 %",-2.33%
same,inhibition,"Thailand/16681/1984, Concentration 99.01 uM, Number of replicates 2.0, Standard deviation 3.4829330374108984 %",0.646%
same,inhibition,"Thailand/16681/1984, Concentration 198.0 uM, Number of replicates 2.0, Standard deviation 2.5492665464036164 %",0.863%
CN(C(=O)C1CCN(c2ccc(C=O)cc2)CC1)C1CCN(C(=O)OC(C)(C)C)CC1,inhibition,[1],12.2%
Cc1cc(CO)c2cccc(Nc3cc(C)on3)c2n1,inhibition,"Thailand/16681/1984, Concentration 49.95 uM, Number of replicates 2.0, Standard deviation 1.3194982141200182 %",1.66%
same,inhibition,"Thailand/16681/1984, Concentration 99.9 uM, Number of replicates 2.0, Standard deviation 1.2714193652686099 %",2.71%
O=Cc1ccc(N2CCC(C(=O)NCC34CC5CC(CC(C5)C3)C4)CC2)cc1,inhibition,[1],11.8%
Cn1ncc2c(C(=O)Nc3ccc4c(c3)CNC4)cc(-c3cccnc3)nc21,inhibition,"Thailand/16681/1984, Concentration 99.5 uM, Number of replicates 2.0, Standard deviation 0.6966055883154065 %",-0.716%
same,inhibition,"Thailand/16681/1984, Concentration 295.6 uM, Number of replicates 2.0, Standard deviation 0.8690208118243027 %",16.8%
Cc1cnccc1NC(=O)c1nc(C2CC2)n(C)n1,inhibition,"Thailand/16681/1984, Concentration 49.5 uM, Number of replicates 2.0, Standard deviation 1.7027660601441394 %",-2.92%
same,inhibition,"Thailand/16681/1984, Concentration 99.01 uM, Number of replicates 2.0, Standard deviation 1.340760456256794 %",-2.09%
same,inhibition,"Thailand/16681/1984, Concentration 198.0 uM, Number of replicates 2.0, Standard deviation 2.3726303476264903 %",-1.34%
Cc1cc(CO)c2cccc(CC(=O)N(c3ncccn3)S(=O)(=O)c3ccc(N)cc3)c2n1,inhibition,"Thailand/16681/1984, Concentration 49.95 uM, Number of replicates 2.0, Standard deviation 0.013152514133703636 %",99.6%
same,inhibition,"Thailand/16681/1984, Concentration 99.9 uM, Number of replicates 2.0, Standard deviation 0.02076996694616858 %",99.4%
